The values that follow come from PubChem BioAssay AID504897 (Southern Research Specialized Biocontainment Screening …, 2011).

The test system of the test is Mycobacterium tuberculosis H37Rv growth inhibition, 7H9 medium. As to the kind of experiment: M. tuberculosis growth inhibition, dose response, H37Rv, 7H9 media, purified and synthesized compounds, set 6 (AID 504897).

Some entries of the source have several records that differ or are many. They are shown here; other results are not. There may be further records. The values listed for one entry are repeated measurements (runs, samples, wells, individuals or studies). What stands in brackets tells the records apart. The letters are not those of the source and start again with each entry.

Usually IC90 stands for the concentration at which the effect reaches the 90% level. A higher IC90 goes with weaker potency. Broadly, the IC50 is the concentration at which inhibition is half-maximal. Read a high IC50 as weaker potency in that assay. In the case of `O=C(CSc1nc2ccccc2c(=O)[nH]1)NC1CCCCC1`, the IC90 is 372 nM [sample A] and 33 nM [sample B]. For the same molecule, where the note is “measured here: IC50 of Mtb growth inhibition”, the IC50 was 141 nM [sample A] and 1 nM [sample B].
